The other results are listed elsewhere or left out. Single values are uncertain, as repeats are few or missing.
Columns and labels:
Assay in all cases: cell count relative to DMSO control; melanoma cells; higher = more viable cells
Settings in all cases: library dose: low library concentration; 72 h
COLO792 = test system: COLO792
COLO800 = test system: COLO800
COLO829 = test system: COLO829
G361 = test system: G361
IPC-298 = test system: IPC-298
IST-MEL1 = test system: IST-MEL1
LB2518-MEL = test system: LB2518-MEL
LOXIMVI = test system: LOXIMVI
MEL-HO = test system: MEL-HO
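Note: cell number obtained by counting DAPI-stained nuclei in high-throughput microscope images with image analysis software, screen run in 1,536-well plates.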

SMILES	cell count (COLO792) [%]	cell count (COLO800) [%]	cell count (COLO829) [%]	cell count (G361) [%]	cell count (IPC-298) [%]	cell count (IST-MEL1) [%]	cell count (LB2518-MEL) [%]	cell count (LOXIMVI) [%]	cell count (MEL-HO) [%]
CCCS(=O)(=O)Nc1ccc(F)c(C(=O)c2c[nH]c3ncc(Cl)cc23)c1F + O=C(O)C(=O)Nc1sc2c(c1C(=O)O)CCNC2 [TCS401] (first compound 0.08 µM, partner dose 1.66667 µM)	110	116	120	91.4	93.6	101	106	103	85.2
NC1(c2ccc(-c3nc4ccn5c(=O)[nH]nc5c4cc3-c3ccccc3)cc2)CCC1 + Cc1ccc(NC(=O)c2cccc(N(C)C)c2)cc1NC(=O)c1ccc(O)cc1 [ZM336372] (first compound 0.4 µM, partner dose 2 µM)	82.2	92.7	100	106	80.4	93.6	80.6	144	79.4
CCCS(=O)(=O)Nc1ccc(F)c(C(=O)c2c[nH]c3ncc(Cl)cc23)c1F + COc1ccc(-c2ccc3c(N4CCOCC4)nc(N4C[C@@H](C)O[C@@H](C)C4)nc3n2)cc1CO [KU0063794] (first compound 0.08 µM, partner dose 0.02 µM)	98.7	116	95.9	92.9	88.3	92.4	116	92.3	103
CCCS(=O)(=O)Nc1ccc(F)c(C(=O)c2c[nH]c3ncc(Cl)cc23)c1F + CCCCCCCCCCCC1=C(O)C(=O)C=C(O)C1=O [Embelin] (first compound 0.08 µM, partner dose 1.2 µM)	116	108	116	93	90.8	98	86.4	112	97.3
CN(c1ncccc1CNc1nc(Nc2ccc3c(c2)CC(=O)N3)ncc1C(F)(F)F)S(C)(=O)=O + C=CCn1c(=O)c2cnc(Nc3ccc(N4CCN(C)CC4)cc3)nc2n1-c1cccc(C(C)(C)O)n1 [MK1775] (first compound 0.08 µM, partner dose 0.02 µM)	86.8	103	84.8	74.6	103	98.6	83.8	76.7	96.5
C=C(c1ccc(C(=O)O)cc1)c1cc2c(cc1C)C(C)(C)CCC2(C)C [Bexarotene] + COc1ccc(-c2ccc3c(N4CCOCC4)nc(N4C[C@@H](C)O[C@@H](C)C4)nc3n2)cc1CO [KU0063794] (first compound 2 µM, partner dose 0.02 µM)	99.9	119	68	69	88.5	99.1	101	109	91.6
CCCS(=O)(=O)Nc1ccc(F)c(C(=O)c2c[nH]c3ncc(Cl)cc23)c1F + COc1cc(Nc2ncc(F)c(Nc3ccc4c(n3)NC(=O)C(C)(C)O4)n2)cc(OC)c1OC [Tamatinib] (first compound 0.08 µM, partner dose 0.4 µM)	62.6	81.7	97.1	77.7	76	95.3	81.5	70.6	83.6
NC1(c2ccc(-c3nc4ccn5c(=O)[nH]nc5c4cc3-c3ccccc3)cc2)CCC1 + O=C1NC(=O)/C(=C/c2ccc(-c3ccc(F)cc3O)o2)S1 [AS252424] (first compound 0.4 µM, partner dose 1 µM)	68.9	88.1	89.3	86.3	95.7	98.8	77.4	106	85.1
CN(c1ncccc1CNc1nc(Nc2ccc3c(c2)CC(=O)N3)ncc1C(F)(F)F)S(C)(=O)=O + CN(NC(=O)CC(=O)NN(C)C(=S)c1ccccc1)C(=S)c1ccccc1 [STA4783] (first compound 0.08 µM, partner dose 0.006 µM)	63.3	54.3	57.1	100	103	87.2	93.4	73	92.5
CCCS(=O)(=O)Nc1ccc(F)c(C(=O)c2c[nH]c3ncc(Cl)cc23)c1F + c1cc(-c2cnn3cc(-c4ccc(OCCN5CCCCC5)cc4)cnc23)ccn1 [Dorsomorphin] (first compound 0.08 µM, partner dose 0.4 µM)	97	113	156	84.8	83.9	94.8	104	107	92
CN(c1ncccc1CNc1nc(Nc2ccc3c(c2)CC(=O)N3)ncc1C(F)(F)F)S(C)(=O)=O + Oc1nc(-c2ccc(C(F)(F)F)cc2)nc2c1CSCC2 [XAV939] (first compound 0.08 µM, partner dose 2 µM)	59.3	100	103	90.1	101	105	102	92.7	113
NC1(c2ccc(-c3nc4ccn5c(=O)[nH]nc5c4cc3-c3ccccc3)cc2)CCC1 + O=C(Nc1cccc(Cl)c1)Nc1ncc(CCNc2ncnc3ccsc23)s1 [SNS314] (first compound 0.4 µM, partner dose 0.0008 µM)	72.2	56	89	90.8	93.6	91.4	65.9	104	81.5
CCCS(=O)(=O)Nc1ccc(F)c(C(=O)c2c[nH]c3ncc(Cl)cc23)c1F + Oc1nc(-c2ccc(C(F)(F)F)cc2)nc2c1CSCC2 [XAV939] (first compound 0.08 µM, partner dose 2 µM)	79.6	251	113	94.7	92.7	89.1	109	158	66
CS(=O)(=O)c1ccc(C(=O)Nc2ccc(Cl)c(-c3ccccn3)c2)c(Cl)c1 [vismodegib] + O=c1cc(-c2cccc3c2Sc2ccccc2S3)oc(N2CCOCC2)c1 [KU55933] (first compound 1 µM, partner dose 1 µM)	90.6	87.3	127	95.9	97.8	104	104	114	101
CCCS(=O)(=O)Nc1ccc(F)c(C(=O)c2c[nH]c3ncc(Cl)cc23)c1F + COc1cc2ncnc(Nc3ccc(Oc4ccccc4)cc3)c2cc1OC [SrcI1] (first compound 0.08 µM, partner dose 2 µM)	85.5	140	103	95.4	88.6	105	145	62.7	98
CS(=O)(=O)c1ccc(C(=O)Nc2ccc(Cl)c(-c3ccccn3)c2)c(Cl)c1 [vismodegib] + COc1cc2ncnc(Nc3ccc(Oc4ccccc4)cc3)c2cc1OC [SrcI1] (first compound 1 µM, partner dose 2 µM)	99.6	121	126	101	92.1	105	125	132	91.3
CS(=O)(=O)c1ccc(C(=O)Nc2ccc(Cl)c(-c3ccccn3)c2)c(Cl)c1 [vismodegib] + C=CCn1c(=O)c2cnc(Nc3ccc(N4CCN(C)CC4)cc3)nc2n1-c1cccc(C(C)(C)O)n1 [MK1775] (first compound 1 µM, partner dose 0.02 µM)	94.5	78.5	110	93.7	93.3	95.5	76.8	82.5	101
CS(=O)(=O)c1ccc(C(=O)Nc2ccc(Cl)c(-c3ccccn3)c2)c(Cl)c1 [vismodegib] + CC(C)CCN1c2nc(Nc3cc(F)c(O)c(F)c3)ncc2N(C)C(=O)C1C [BID1870] (first compound 1 µM, partner dose 0.2 µM)	97.5	123	90.7	83.6	97.6	99.7	95.7	113	80.9
CS(=O)(=O)c1ccc(C(=O)Nc2ccc(Cl)c(-c3ccccn3)c2)c(Cl)c1 [vismodegib] + Cn1cncc1[C@@](N)(c1ccc(Cl)cc1)c1ccc2c(c1)c(-c1cccc(Cl)c1)cc(=O)n2C [tipifarnib] (first compound 1 µM, partner dose 0.01 µM)	85.9	95.1	98.5	88.1	95.4	95.5	85.7	110	92.5
NC1(c2ccc(-c3nc4ccn5c(=O)[nH]nc5c4cc3-c3ccccc3)cc2)CCC1 + COc1ccc(COc2ccc(Cc3cnc(N)nc3N)cc2OC)cc1 [GW2580] (first compound 0.4 µM, partner dose 1 µM)	62.7	85.4	106	94.9	95.2	84.5	81.9	55.7	73.8
NC1(c2ccc(-c3nc4ccn5c(=O)[nH]nc5c4cc3-c3ccccc3)cc2)CCC1 + COc1cc(N2CCC(N3CCN(C)CC3)CC2)ccc1Nc1ncc(Cl)c(Nc2ccccc2S(=O)(=O)C(C)C)n1 [NVP-TAE684] (first compound 0.4 µM, partner dose 0.08 µM)	87.2	75.6	91.8	97.8	99.1	93.9	90.1	60.5	92.3
C=C(c1ccc(C(=O)O)cc1)c1cc2c(cc1C)C(C)(C)CCC2(C)C [Bexarotene] + COc1cc(N2CCC(N3CCN(C)CC3)CC2)ccc1Nc1ncc(Cl)c(Nc2ccccc2S(=O)(=O)C(C)C)n1 [NVP-TAE684] (first compound 2 µM, partner dose 0.08 µM)	95.5	98.9	78.5	102	102	102	88.6	120	82.6
C=C(c1ccc(C(=O)O)cc1)c1cc2c(cc1C)C(C)(C)CCC2(C)C [Bexarotene] + c1cc(-c2cnn3cc(-c4ccc(OCCN5CCCCC5)cc4)cnc23)ccn1 [Dorsomorphin] (first compound 2 µM, partner dose 0.4 µM)	95.4	99	98.4	78.2	95.4	98.5	114	87.8	98.3
CCCS(=O)(=O)Nc1ccc(F)c(C(=O)c2c[nH]c3ncc(Cl)cc23)c1F + O=c1cc(-c2cccc3c2Sc2ccccc2S3)oc(N2CCOCC2)c1 [KU55933] (first compound 0.08 µM, partner dose 1 µM)	99.7	88.6	117	90.1	98.3	102	137	109	97.6

— the supplement of paper PMC4604168 (melanoma cell lines)
